The text below walks through data of paper PMC12040169 (PLOS Biology, 2025).

This is one part of the list.

This assay deals with T1, C. trachomatis L2/434/Bu expressing GFP (CTL2-GFP).
T1 construct: L2/434/Bu GFP intracellular growth in HeLa cells
Also on record: species or system HeLa; C. trachomatis total inclusion area by high-content imaging, normalised to DMSO. The note with it: total inclusion area; 28.5 h, 10 µM; inhibitor. In short, it runs like this: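 Imaging read-out: GFP inclusions and Hoechst nuclei captured by high-content imaging after fixation. Inclusion area/number = chlamydial growth; nuclei count = host cell viability. MIC calculated per earlier method.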
For the molecule `CCN(CC)C(=O)Cn1nc2c(C)cc3cc(C)ccc3n2c1=O` [CBK283871], the “% of control remaining” value stood at 106.311.

Take `Cc1nnc(N/N=C/c2ccc(OC3CCCC3)cc2)nc1O` [CBK058025]: the “% of control remaining” value is 73.7845.

As to `Cc1ccc(NC(=O)c2cc(NC(=O)C3CC=CCC3C(=O)O)ccc2N2CCOCC2)cc1Cl` (centres unmarked) [CBK265323], the “% of control remaining” value was 94.8985.

Consider `Cc1ccc(C)c(-c2nc(-c3cccnc3)no2)c1` [CBK288018], for which the “% of control remaining” value is 67.5336.

On to `Cn1nc(C2CCN(C(=O)C3CCCCC3)CC2)c2cccnc21` [CBK284897], for which the “% of control remaining” value is recorded as 92.2222.

For the molecule `Cc1nn(CC(=O)N(C)CCCc2nccn2C)c(=O)c2ccccc12` [CBK307087], the “% of control remaining” value came out at 115.99.

`CCOC(=O)CC(C)NS(=O)(=O)c1ccc(OC(F)(F)F)cc1` (centres unmarked) [CBK044954]: the “% of control remaining” value is 137.396.

Turning to `COc1ccc(NCc2cc(=O)oc3cc4c(cc23)CCC4)cn1` [CBK235362], the “% of control remaining” value was determined as 95.0351.

On to `COC(=O)[C@@H]1Cc2ncn(C(C)C)c2CN1C(=O)c1ccccc1` [CBK288987], for which the “% of control remaining” value turned out to be 104.733.

In the case of `Cc1nn(C)c(C)c1CCC(=O)NCC1CN(c2ccccc2)CCO1` (centres unmarked) [CBK307199], the “% of control remaining” value is listed as 49.2868.

As for `Cc1cc(COc2ccnc(N3CCCN(CC4CC4)CC3)n2)no1` [CBK084073], the “% of control remaining” value was 80.1738.

Take `C=CCNC(=O)CN1CCC(c2ccc(OC)cc2)CC1` [CBK283560]: the “% of control remaining” value came to 64.1954.

As to `O=C(N[C@H]1CO[C@H]2[C@@H]1OC[C@@H]2n1cc(-c2ccccn2)nn1)c1ccc(C(F)(F)F)cc1` [CBK289507], the “% of control remaining” value is on record as 93.0829.

As to `CCCC/C=C/c1ccc(Nc2ccc(N3CCOCC3)cc2)nc1` [CBK036886], the “% of control remaining” value was 86.7182.

For `C[C@]12CN(Cc3ccccc3)C[C@H]1NC(=O)c1ccccc1C2=O` [CBK284703], the “% of control remaining” value is 109.357.

As for `CN(C)c1ccc(-c2nccnc2NCC(O)COc2ccccc2)cc1` (centres unmarked) [CBK036928], the “% of control remaining” value was 89.844.

Turning to `COc1ccc(C)cc1NC(=O)CN(c1ccccc1)S(=O)(=O)c1ccc(F)cc1` [CBK268223], the “% of control remaining” value was 88.1437.

For `CCc1noc(C)c1C(=O)NCCN1CC(C)CC(C)C1` (centres unmarked) [CBK282081], the “% of control remaining” value is 84.6386.

As to `CCOc1cc(C(c2c[nH]c3ccccc23)c2c[nH]c3ccccc23)ccc1OCC(=O)O` [CBK264450], the “% of control remaining” value was 108.552.

As to `Cc1cc(C)nc(Nc2n[nH]c(-c3cccc4ccccc34)n2)n1` [CBK266451], the “% of control remaining” value was 142.778.

`O=C(c1ccc2ccccc2n1)N1CCc2ccccc21` [CBK200404]: the “% of control remaining” value was found to be 103.087.

For `Cc1ccc2cn[nH]c2c1` [CBK016109], the “% of control remaining” value is 64.9305.

With `CCc1nnc(NS(=O)(=O)c2ccc(NCc3cc(Cl)cc(Cl)c3O)cc2)s1` [CBK126494], the “% of control remaining” value was 103.015.

For `Cc1ccn2cc(C(=O)NCCSc3nccn3C)nc2c1` [CBK281417], the “% of control remaining” value was determined as 76.5067.

Regarding `COc1ccccc1-c1cnc(N)c(N[C@@H](C)c2ccccc2)n1` [CBK063721], the “% of control remaining” value stood at 110.84.

For the molecule `CNS(=O)(=O)c1cccc(C(=O)N(C)Cc2ccsc2)c1` [CBK303993], the “% of control remaining” value came out at 72.0781.

For the molecule `CCC1CCc2c(sc(NC(=O)c3cnccn3)c2C(N)=O)C1` (centres unmarked) [CBK262649], the “% of control remaining” value came to 101.472.

Turning to `CCOC(=O)c1cnc2c(C)cc(C)cc2c1NCCN1CCOCC1` [CBK264757], the “% of control remaining” value was found to be 102.885.

As to `COCCn1c(SC)nc2sc(-c3ccccc3)cc2c1=O` [CBK295200], the “% of control remaining” value is on record as 114.339.

Regarding `O=S(=O)(c1ccc(F)c(F)c1F)n1ccc2c(N3CCNCC3)nccc21` [CBK059066C], the “% of control remaining” value is given as 104.218.

Take `Cc1ccc(C23CC4CC(CC(C(=O)NC(C(=O)O)C(C)C)(C4)C2)C3)cc1` (centres unmarked) [CBK264924]: the “% of control remaining” value came out at 118.137.

On to `C=CCSc1nnc(-c2ccc(OCCC)cc2)[nH]1` [CBK267323], for which the “% of control remaining” value worked out at 85.8079.

For `CCN(Cc1ccncc1)C(=O)Nc1cccnc1` [CBK145053], the “% of control remaining” value amounted to 106.15.

As for `CCn1cc(C(=O)O)c(=O)c2cnc(N3CCN(C(=S)NC(=O)c4c(-c5ccccc5)noc4C)CC3)nc21` [CBK267491], the “% of control remaining” value came out at 107.158.

For `COc1ccc(-c2cncc(N[C@@H](CO)C(C)C)n2)cc1` [CBK037941], the “% of control remaining” value was determined as 118.029.

For `O=C(c1ccc2nc[nH]c2c1)N1CCC2(CCN(Cc3ccccc3)C2)C1` (centres unmarked) [CBK136862], the “% of control remaining” value is 113.217.

Consider `OCCN1CCN(c2cc(Nc3ccc(Oc4ccccc4)cc3)nc3ccnn23)CC1` [CBK037185], for which the “% of control remaining” value turned out to be 141.879.

For the molecule `O=C1COc2ccc(S(=O)(=O)NCc3ccccc3)cc2N1` [CBK270156], the “% of control remaining” value was 98.0956.

For `Cc1nc(CN2CCC3(CC2)CN(C(=O)CO)c2ccccc23)cs1` [CBK131523], the “% of control remaining” value is on record as 99.9172.

For `O=C(CCCN1C(=O)/C(=C\c2cccs2)SC1=S)Nc1cc(Cl)ccc1O` [CBK263673], the “% of control remaining” value came to 91.7094.

Regarding `O=[N+]([O-])c1cccnc1Oc1cccc2cccnc12` [CBK002760], the “% of control remaining” value came out at 88.6565.

As to `CCCC(=O)NC1CC(C)(C)Cc2nc(N3CCOCC3)ncc21` (centres unmarked) [CBK306883], the “% of control remaining” value stood at 67.9109.

On to `N#Cc1ccnc(N2CCC3(CCCN(CC4CCCCC4)C3=O)C2)c1` (centres unmarked) [CBK306561], for which the “% of control remaining” value was 43.0509.

As for `CCN(CC)CCn1c(NC(=O)c2c(Cl)nc3ccccn23)nc2ccccc21` [CBK298305], the “% of control remaining” value worked out at 77.2478.

On to `O=C(Nc1ccc2n(c1=O)C[C@H]1C[C@@H]2CN(C(=O)Nc2ccc(F)cc2)C1)c1ccco1` [CBK289205], for which the “% of control remaining” value worked out at 111.399.

For the molecule `O=C(CSc1nnc(-c2ccncc2)n1-c1ccccc1)Nc1ccnc2ccccc12` [CBK267900], the “% of control remaining” value is listed as 85.505.

`CCOC(=O)N1CCN(Cn2nc(COc3ccccc3)n(C)c2=S)CC1` [CBK265148]: the “% of control remaining” value amounted to 76.2825.

As for `COc1ccc(Cl)cc1CN(C)C(=O)c1ccc[nH]c1=O` [CBK305933], the “% of control remaining” value was 51.3676.

For `Cn1ccc(C2CCCCCN2C(=O)c2c(Cl)cnn2C)n1` (centres unmarked) [CBK284914], the “% of control remaining” value is given as 98.4663.

Turning to `COc1ccc(C2CC(c3nc4ccccc4[nH]3)=NN2C(=O)CCN2CCCCC2)cc1` (centres unmarked) [CBK267673], the “% of control remaining” value was determined as 91.005.

As for `N#Cc1cc(Cl)ccc1CN1CCCCC1c1[nH]ncc1C(N)=O` (centres unmarked) [CBK304746], the “% of control remaining” value is 62.2923.

For `CCOc1ccccc1OCC(C)CNC` (centres unmarked) [CBK026242G], the “% of control remaining” value amounted to 74.5204.

In the case of `O=C(O)CCC(NC(=O)c1ccc(-c2ccc(Cl)cc2)s1)C(=O)O` (centres unmarked) [CBK295171], the “% of control remaining” value amounted to 132.013.

Consider `Fc1ccc(CN(Cc2ccsc2)[C@@H]2COC[C@H]2c2ccc(F)cc2)cc1` [CBK286486], for which the “% of control remaining” value came out at 120.493.

Turning to `CCn1c(SCC(=O)Nc2nc(C)c(C(=O)OC)s2)nc2c1c(=O)n(C)c(=O)n2C` [CBK127470], the “% of control remaining” value came out at 95.3208.

As for `Cc1cc2c([nH]c3ccccc32)c(C)n1` [CBK262689], the “% of control remaining” value is on record as 75.7078.

As for `Cc1nn(-c2nc3ccccc3s2)c(O)c1C1OC(=O)c2ccccc21` (centres unmarked) [CBK267220], the “% of control remaining” value is on record as 104.286.

For `OCc1ccccc1-c1cncc(N2CCCC2CO)n1` (centres unmarked) [CBK065333], the “% of control remaining” value is 131.801.

As for `N#CC1(NC(=O)c2ccn(-c3cccc(F)c3)n2)CCSC1` (centres unmarked) [CBK304566], the “% of control remaining” value amounted to 91.1133.

Regarding `CC1CN(C(=O)NC2CCCCC2)C(c2ccccc2)ON1C` (centres unmarked) [CBK026650], the “% of control remaining” value amounted to 85.6752.

Regarding `O=C1OCc2ccc3c(c21)COCO3` [CBK022696], the “% of control remaining” value is reported as 73.1673.

With `COc1ccc(NC(=O)CSc2cc(-n3cccn3)ncn2)cc1` [CBK287819], the “% of control remaining” value was found to be 81.8312.

Regarding `CCCCn1c(SCC(=O)N(C)Cc2cnn(-c3ccccc3)c2)n[nH]c1=O` [CBK296732], the “% of control remaining” value was 88.1787.

Turning to `Cc1cc2ccccc2n2c(=O)n(CC(=O)N3CCC(C)CC3)nc12` [CBK283881], the “% of control remaining” value is on record as 112.349.

Turning to `O=S(=O)(N[C@H]1CO[C@H]2[C@@H]1OC[C@@H]2n1cc(-c2ccccn2)nn1)c1cccs1` [CBK289508], the “% of control remaining” value is reported as 118.3.

Regarding `Nc1nccc(-c2cc(OCC(F)(F)F)ccc2OCC(F)(F)F)n1` [CBK005948], the “% of control remaining” value was determined as 93.6241.

With `CCC(C)(C)C(=O)Nc1ccc(Br)c2ccccc12` [CBK091342], the “% of control remaining” value worked out at 52.9256.

Regarding `CCNC(=O)N[C@H]1CC[C@]2(C)CCC([C@H](C)C(=O)N3CCCC3)[C@H](O)[C@H]2[C@@H]1C` (some centres unmarked) [CBK289456], the “% of control remaining” value turned out to be 99.6021.

Take `CCOC(=O)c1c(NC(=O)c2cccnc2)sc2c1CCCC2` [CBK304574]: the “% of control remaining” value is 62.7461.

Regarding `CN(C)CC(=O)Nc1ccc(Br)cc1C(=O)c1ccccc1Cl` [CBK264663F], the “% of control remaining” value was 109.846.

`COc1ccc(CN2CCN(C)CC2)cc1OCc1ccccc1` [CBK261886]: the “% of control remaining” value is 102.044.

In the case of `O=C(NC(=S)Nc1cccc(-c2nc3cc(Cl)ccc3o2)c1)c1ccccc1Br` [CBK263973], the “% of control remaining” value came to 113.017.

On to `Clc1cc(N[C@@H]2CCN(Cc3ccccc3)C2)n2nccc2n1` [CBK037069], for which the “% of control remaining” value was determined as 105.451.

Consider `CSCCN1CCC(Oc2nccnc2OCc2cc(C)on2)CC1` [CBK082966T], for which the “% of control remaining” value was 96.9761.

Regarding `O=C(O)C1(NS(=O)(=O)c2ccc(Cl)cc2)CCCCC1` [CBK028566], the “% of control remaining” value is on record as 101.691.

Turning to `C[N+]1(C)CCN(C(=O)CCC(=O)N2CC[N+](C)(C)CC2)CC1` [CBK278200I], the “% of control remaining” value was 91.583.

Take `O=C(O)C1(Oc2ccc3ccccc3c2)CCN(CC2CCOC2)CC1` (centres unmarked) [CBK306767]: the “% of control remaining” value came out at 88.4015.

For the molecule `c1ccc2c(c1)nc(N1CCOCC1)n2CCN1CCOCC1` [CBK269841], the “% of control remaining” value is listed as 73.8973.

For the molecule `CC(=O)NCCn1cc2c(n1)[C@H]1CN(C(=O)CC(C)C)C[C@H]1CC2` [CBK284572], the “% of control remaining” value was determined as 53.4314.

On to `CN1C(=O)c2ccccc2C(O)C2(C)CN(Cc3ccccc3)CC12` (centres unmarked) [CBK282849], for which the “% of control remaining” value is 89.0124.
